Measured values published in the CheMixHub viscosity set.
Not every entry of the source has a single result; some have several. This is not the full list of results. The source may hold further records. Values given together are repeats (runs, samples, wells, individuals or studies). Marks in square brackets tell the records apart. The letters are not those of the source and start again with each entry.

CCCCOC(C)=O
viscosity
Conditions	298.15 K	303.15 K	308.15 K	313.15 K
101 kPa	0.673 mPa·s [study A] and 0.678 mPa·s [study B] and 0.669 mPa·s [study C] and 0.6723 mPa·s [study D] and 0.675 mPa·s [study E] and 0.686 mPa·s [study F] and 0.7 mPa·s [study G]	0.6345 mPa·s [study A] and 0.63 mPa·s [study B] and 0.635 mPa·s [study C] and 0.6491 mPa·s [study D] and 0.6491 mPa·s [study E] and 0.625 mPa·s [study F] and 0.641 mPa·s [study G]	0.596 mPa·s [study A] and 0.592 mPa·s [study B] and 0.589 mPa·s [study C] and 0.595 mPa·s [study D]	0.5609 mPa·s [study A] and 0.556 mPa·s [study B] and 0.555 mPa·s [study C] and 0.556 mPa·s [study D] and 0.567 mPa·s [study E] and 0.545 mPa·s [study F] and 0.558 mPa·s [study G]
101.33 kPa	0.679 mPa·s [study A] and 0.673 mPa·s [study B] and 0.675 mPa·s [study C] and 0.662 mPa·s [study D]	0.634 mPa·s [study A] and 0.63 mPa·s [study B] and 0.631 mPa·s [study C] and 0.623 mPa·s [study D] and 0.648 mPa·s [study E]	–	–
